This is an account of results in PubChem BioAssay AID1159614 (National Center for Advancing Translational Sciences (NCATS), 2016).

The whole screen tested about 45,000 compounds, of which about 65 (0.1%) were called active. Calls follow the shape of the dose curve; as a rule, active = well fitted activation curve with a large enough effect; inconclusive = small, poorly fitted or top-dose-only effect; inactive = no such curve, though single readings can be large or run the other way. The list shows a part of the results.

Sequence of UniProt P54803 (P54803 whole entry, looked up): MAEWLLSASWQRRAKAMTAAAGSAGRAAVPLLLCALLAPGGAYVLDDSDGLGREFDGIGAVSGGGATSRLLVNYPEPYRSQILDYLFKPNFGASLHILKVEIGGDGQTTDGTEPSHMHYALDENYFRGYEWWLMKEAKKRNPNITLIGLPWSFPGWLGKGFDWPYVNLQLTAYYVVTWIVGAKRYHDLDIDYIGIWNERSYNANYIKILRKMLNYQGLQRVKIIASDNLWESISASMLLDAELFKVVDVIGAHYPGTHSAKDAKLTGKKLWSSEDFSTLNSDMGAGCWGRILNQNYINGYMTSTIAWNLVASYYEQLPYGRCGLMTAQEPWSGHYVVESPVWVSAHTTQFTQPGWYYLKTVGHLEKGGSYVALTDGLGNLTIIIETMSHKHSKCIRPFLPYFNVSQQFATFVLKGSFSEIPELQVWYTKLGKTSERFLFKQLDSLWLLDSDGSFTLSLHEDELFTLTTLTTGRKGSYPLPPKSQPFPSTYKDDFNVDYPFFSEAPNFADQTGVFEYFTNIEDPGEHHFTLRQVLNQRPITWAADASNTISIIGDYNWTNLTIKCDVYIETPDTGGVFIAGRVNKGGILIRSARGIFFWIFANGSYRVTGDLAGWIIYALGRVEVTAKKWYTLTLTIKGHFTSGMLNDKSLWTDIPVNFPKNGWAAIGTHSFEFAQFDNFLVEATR

The target in the assay is Galactocerebrosidase (Homo sapiens) (UniProt P54803). Description: A Novel Cell-Based Assay to Identify Small Molecules for B -Galactocerebrosidase. Also: 0% is about no effect; nearly all actives have a fitted effect of over 65% in size. Conditions: 145M-Twi-hGALC-G270D cells (Twitcher mouse brain line with human GALC G270D), HMU-beta-Gal fluorescence, 48 h; series mostly up to 57.5 µM; activation: at the top concentration. The method in brief:
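Mutant human GALC (G270D), stably expressed in a Twitcher mouse brain cell line lacking endogenous GALC, is measured in live-treated cells via 6-hexadecanoylamino-4-methylumbelliferyl-β-galactoside hydrolysis (0.1 mM final, pH 5.2) with fluorescent detection.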
`O=C(NCc1ccc(Cl)cc1)c1cnc2sc(N3CCCC3)nn2c1=O`: the “activation” value is inactive: -6.44%.
Regarding `O=C(CC1N=C2c3ccccc3N=C(SCc3ccccc3F)N2C1=O)NCc1ccc2c(c1)OCO2` (stereo not drawn), the “activation” value was inactive: -8.77%.
As for `COc1ccc(Cl)cc1NC(=O)CN(c1cccc(C)c1C)S(=O)(=O)c1ccccc1`, the figure is inactive: 2.44%.
Then `COc1ccc(C2c3c(n(C)c4ccccc34)C(=O)N2CC(=O)Nc2ccccc2F)cc1` (stereo not drawn), with inactive: -8.89%; and `COc1cc(C)ccc1OCCn1c(-c2ccc(Cl)cc2)nc2ccccc2c1=O`, with inactive: -27.3%.
As for `COc1ccc2c(c1)sc1ncc(C(=O)NCc3cccc(Cl)c3)c(=O)n12`, the figure is inactive: -21.2%; as for `COc1ccc(-n2c3c(cc(-c4nc(-c5ccc(Cl)cc5)cs4)c2=O)C(=O)CC(C)(C)C3)cc1`, inactive: -10.2%.
Turning to `O=C1c2[nH]nc(-c3ccc(Br)cc3)c2C(c2cccc(O)c2)N1c1ccc(Cl)cc1` (stereo not drawn), the “activation” value is inactive: -7.45%.
As for `COc1ccc(NC(=O)c2sc3nc4n(c(=O)c3c2C)CCC4)cc1Cl`, the figure is inactive: -19.4%; as for `Cc1ccc2scc(N3CCN(c4ccc(F)cc4)CC3)c(=O)c2c1`, inactive: -5.99%.
As for `CCOc1ccc(NC(=O)Cn2c(=O)oc3cc(S(=O)(=O)N4CCCCCC4)ccc32)cc1`, the figure is inactive: -3.64%; as for `Cc1ccc(CCNC(=O)c2ccc(CSCc3ccccc3Cl)o2)cc1`, inactive: -14.3%; as for `Cc1ccc(N(C)S(=O)(=O)c2nnc(NC(=O)C3CCCCC3)s2)cc1`, inactive: -20.1%.
Then `CCc1ccc(CNC(=O)c2cc(-c3ccc(Cl)s3)nc3ccccc23)cc1`, with inactive: -4.98%; and `O=C(Cc1ccc(NC(=O)N2CCSc3ncccc32)cc1)NCCc1ccccc1`, with inactive: -9.03%; and `CCNc1ccc(-c2nc(-c3ccco3)no2)cc1[N+](=O)[O-]`, with inactive: -2.75%.
In the case of `CN(C)S(=O)(=O)n1cc(/C=C(\NC(=O)c2ccccc2)C(=O)NCCCn2ccnc2)c2ccccc21`, the “activation” value is inactive: 9.44%.
Then `CCOc1ccc(CNC(=O)c2ccc3c(c2)c(C)c(C)n3Cc2ccc(Cl)cc2)cc1`, with inactive: -8.33%; and `O=C(NCCOCCn1c(=O)oc2ccccc21)Nc1ccc(Cl)cc1`, with inactive: -4.83%.
Then `Cc1ccccc1NC(=O)c1c(NC(=O)Cc2ccccc2)sc2c1CCC2`, with inactive: -7.82%; and `CCOC(=O)N1CCc2c(sc3c2c(=O)n(-c2ccc(CC)cc2)c(=O)n3CC(=O)Nc2ccc(C)cc2)C1`, with inactive: -9.85%; and `Cc1ccc2oc(=O)n(CCCOc3ccc(Cl)cc3)c2c1`, with inactive: -8.55%.
As for `Cc1cc(C)c(NC(=O)c2cc(S(=O)(=O)N3CCN(c4ccccc4F)CC3)ccc2F)c(C)c1`, the figure is inactive: -28%; as for `COc1ccc(N2CC(NC(=O)CCc3ccccc3)CC2=O)cc1OC` (stereo not drawn), inactive: -12%; as for `COc1cc(OC)c(Nc2nc3ccccc3nc2-n2nc(C)cc2C)cc1Cl`, inactive: -1.54%.
Take `O=C(Cn1c(=O)n(CC2CCCO2)c(=O)c2ccccc21)Nc1cccc(Cl)c1` (stereo not drawn): the “activation” value is inactive: -2.3%.
Then `COC(=O)c1scc(-c2ccc(C)cc2)c1S(=O)(=O)N1CCN(c2ccc(OC)cc2)CC1`, with inactive: -16.1%.
Then `CCOC(=O)c1ccccc1NC(=O)N1CCC(N2CCN(Cc3ccccc3)C(=O)C2=O)CC1`, with inactive: -14.1%; and `Cc1ccc(CCn2c3c(c4cc(Cl)ccc42)CN(C)CC3)cn1`, with inactive: -7.21%.
For the molecule `Cc1ccc(N)cc1O`, the “activation” value was inactive: -17.9% [at 114 µM].
Then `CCS(=O)(=O)N1CCc2cc(C(=O)NCc3ccccc3)ccc21`, with inactive: -6.35%.
Take `Cc1ccc(-c2nc3nc(C)cc(Nc4ccccc4O)n3n2)cc1`: the “activation” value is inactive: -13.1%.
Turning to `CCOc1ccc(OCC)c(NC(=O)CCC(=O)N2CCOc3ccccc32)c1`, the “activation” value was inactive: -15.7%.
As for `COCCCNc1nc2c(S(=O)(=O)c3ccc(C)c(C)c3)nnn2c2ccc(Cl)cc12`, the “activation” value was inactive: 2.19%.
Then `Cc1ccc(NC(=O)CN2C(=O)CCn3nc(-c4cccn4C)cc32)cc1`, with inactive: -12.2%.
As for `Cc1ccc2oc(-c3cc(NC(=O)c4ccco4)ccc3Cl)nc2c1`, the figure is inactive: 9.89%.
As for `CSc1ncc(C(=O)Nc2ccc(F)cc2F)c(-c2ccccc2)n1`, the figure is inactive: 2.18%; as for `COc1cc(OC)c(NS(=O)(=O)c2cc(-c3cnc(C)o3)ccc2OC)cc1Cl`, inactive: -7.22%.
On to `COc1ccc(-n2nc(C(=O)N3CCN(c4cccc(C)c4C)CC3)c3c4ccccc4n(C)c3c2=O)cc1`, for which the “activation” value is inactive: -19.1%.
As for `O=C(CSCc1nc2cccnc2n1C1CCCCC1)NCc1cccc(Cl)c1`, the figure is inactive: -2.65%; as for `CNC(=O)COc1ccc(NC(=O)CCn2nc(-c3ccc(C)cc3)c3ccccc3c2=O)cc1`, inactive: -3.39%.
For the molecule `CCC(C)OC(=O)/C(C#N)=C\c1ccc(-c2ccccc2Cl)o1` (stereo not drawn), the “activation” value is inactive: -23.1%.
As for `O=C(Nc1nc2nc(-c3ccccc3)cc(=O)n2[nH]1)c1ccc(Cl)cc1`, the figure is inactive: -30.1%.
As for `Cc1ccc(CNC(=O)c2nn(C)c3c2CS(=O)(=O)c2ccccc2-3)cc1`, the figure is inactive: -14.8%.
As for `CCC(=O)N1c2ccccc2CC1C(=O)NCCc1ccc(C)cc1` (stereo not drawn), the figure is inactive: -9.27%; as for `CCN(CC)CCNC(=O)c1nn(C)c2c1CS(=O)(=O)c1ccccc1-2`, inactive: -9.84%; as for `CCOC(=O)c1ccc(N2C(=O)c3n[nH]c(-c4ccco4)c3C2c2ccc(O)c(OC)c2)cc1` (stereo not drawn), inactive: -20.5%.
For the molecule `Cc1cn(C)c(CC(=O)NCc2ccccc2Cl)c1C(=O)O`, the “activation” value is inactive: -3.42%.
As for `CSc1ccc(CNC(=O)CCn2c(=O)c3cccn3c3ccc(F)cc32)cc1`, the figure is inactive: -0.487%; as for `Cc1ccccc1C(=O)Nc1ccc2c(c1)CCCN2C(=O)c1cccs1`, inactive: -5.45%; as for `Cc1ccc(C(=O)Nc2onc3c2CCCC3)cc1`, inactive: -14%.
As for `O=c1c2ccccc2n(Cc2ccccc2F)c(=O)n1-c1cccc(F)c1`, the figure is inactive: -13%; as for `COc1ccccc1CNC(=O)c1cnc2sc(N3CCCCCC3)nn2c1=O`, inactive: -6.22%; as for `O=C(CSc1nnc2ccc3ccccc3n12)c1ccc(F)cc1`, inactive: -13.4%.
Regarding `Cc1cccc(NC(=O)c2ccc(-c3nc(CSc4ccccc4)c(C)o3)cc2)c1C`, the “activation” value was inactive: -16.9%.
Then `Cc1nc2sc(C(N)=O)c(N)c2c(-c2ccc(Br)cc2)c1C(=O)Nc1ccc(Cl)cc1`, with inactive: -19.8%; and `COc1ccc(C(=O)Nc2ccc(-c3nc4ccccc4s3)cc2C)cc1Cl`, with inactive: -7.84%; and `COCCNC(=O)CCN1C(=O)c2cccnc2Oc2ccc(C)cc21`, with inactive: -6.64%.
As for `COc1ccc(C(=O)N2CCC(c3nc(-c4ccc(S(=O)(=O)N5CCCC5)cc4)no3)CC2)cc1`, the figure is inactive: -14.4%.
Then `COC(=O)c1cc2occc2n1Cc1cccc(C)c1`, with inactive: -19.7%; and `NC(=O)Cn1c(=O)n(CCCCCC(=O)NCc2ccccc2)c(=O)c2sccc21`, with inactive: -8.24%; and `Cc1ccc(-n2nc(C(=O)Nc3ccc(C)c(F)c3)c3c4ccccc4n(C)c3c2=O)cc1`, with inactive: -8.24%.
As for `CC(=O)Nc1nonc1-c1nnc(SCC(=O)Nc2ccc(C)c(Cl)c2)n1-c1ccccc1`, the “activation” value was inactive: -4.92%.
